T1: recombinant human 5T4 protein (5T4/His) (UniProt Q13641 32-355)
T1 chain: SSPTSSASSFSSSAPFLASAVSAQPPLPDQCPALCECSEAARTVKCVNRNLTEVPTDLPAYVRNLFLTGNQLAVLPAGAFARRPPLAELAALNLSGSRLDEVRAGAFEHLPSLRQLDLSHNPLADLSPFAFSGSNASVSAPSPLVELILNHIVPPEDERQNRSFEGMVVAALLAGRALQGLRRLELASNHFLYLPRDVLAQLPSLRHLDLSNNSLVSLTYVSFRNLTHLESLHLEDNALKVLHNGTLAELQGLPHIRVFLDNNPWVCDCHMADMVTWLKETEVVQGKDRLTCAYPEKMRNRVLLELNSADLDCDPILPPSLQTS


Target: T1, recombinant human 5T4 protein (5T4/His)
Assay: ELISA

EC50 [nM] | Binder
0.75 | 53L10 tribody (other) chain 1: QVQLVQSGAEVKKPGASVKVSCKASGYSFTSYYMHWVKQSPGQGLEWIGRINPNNGVTLYNQKFKDRVTMTRDTSISTAYMELSRLRSDDTAVYYCARSTMITNYVMDYWGQGTLVTVSSASTKGPSVFPLAPSSKSTSGGTAALGCLVKDYFPEPVTVSWNSGALTSGVHTFPAVLQSSGLYSLSSVVTVPSSSLGTQTYICNVNHKPSNTKVDKKVEPKSCDKTHTGPGGGSPGQVQLVQSGAELKKPGASVKVSCKASGYTFTRYTMHWVRQAPGQCLEWMGYINPSRGYTNYNQKFKDKATLTADKSTSTAYMELRSLRSDDTAVYYCARYYDDHYSLDYWGQGTLVTVSSASGGGGSGGGGSGGGGSAGDIQLTQSPSILSASVGDRVTITCRASSSVSYMNWYQQKPGKAPKRWIYDTSKVASGVPYRFSGSGSGTEYTLTISSMQPEDFATYYCQQWSSNPLTFGCGTKVEIKSG chain 2: DIVMTQSPDSLAVSLGERATINCKASQSVSNDVAWYQQKPGQPPKLLIYYTSSRYAGVPDRFSGSGSGTDFTLTISSLQAEDVAVYYCQQDYNSPPTFGGGTKLEIKRTVAAPSVFIFPPSDEQLKSGTASVVCLLNNFYPREAKVQWKVDNALQSGNSQESVTEQDSKDSTYSLSSTLTLSKADYEKHKVYACEVTHQGLSSPVTKSFNRGECGPGGGSPG[about 100 residues not given here]SKWELVDPYGNWGQGTMVTVSSGGGGSGGGGSGGGGSNFMLTQPHSVSESPGKTITISCTRSSGSIAGNYVQWYQQRPGSAPIIVIYEDNQRPSGVPDRFSGSIDSSSNSASLTISRLKTEDEADYYCQSYEASNVVFGGGTKLTVLSG
0.75 | 53L1 tribody (other) chain 1: QVQLVQSGAEVKKPGASVKVSCKASGYSFTSYYMHWVKQSPGQGLEWIGRINPNNGVTLYNQKFKDRVTMTRDTSISTAYMELSRLRSDDTAVYYCARSTMITNYVMDYWGQGTLVTVSSASTKGPSVFPLAPSSKSTSGGTAALGCLVKDYFPEPVTVSWNSGALTSGVHTFPAVLQSSGLYSLSSVVTVPSSSLGTQTYICNVNHKPSNTKVDKKVEPKSCDKTHTGPGGGSPGQVQLVQSGAELKKPGASVKVSCKASGYTFTRYTMHWVRQAPGQCLEWMGYINPSRGYTNYNQKFKDKATLTADKSTSTAYMELRSLRSDDTAVYYCARYYDDHYSLDYWGQGTLVTVSSASGGGGSGGGGSGGGGSAGDIQLTQSPSILSASVGDRVTITCRASSSVSYMNWYQQKPGKAPKRWIYDTSKVASGVPYRFSGSGSGTEYTLTISSMQPEDFATYYCQQWSSNPLTFGCGTKVEIKSG chain 2: DIVMTQSPDSLAVSLGERATINCKASQSVSNDVAWYQQKPGQPPKLLIYYTSSRYAGVPDRFSGSGSGTDFTLTISSLQAEDVAVYYCQQDYNSPPTFGGGTKLEIKRTVAAPSVFIFPPSDEQLKSGTASVVCLLNNFYPREAKVQWKVDNALQSGNSQESVTEQDSKDSTYSLSSTLTLSKADYEKHKVYACEVTHQGLSSPVTKSFNRGECGPGGGSPG[about 100 residues not given here]TKWELVDPYDYWGQGTMVTVSSGGGGSGGGGSGGGGSNFMLTQPHSVSESPGKTITISCTRSSGSIAGNYVQWYQQRPGSAPIIVIYEDNQRPSGVPDRFSGSIDSSSNSASLTISRLKTEDEADYYCQSYEASNVVFGGGTKLTVLSG

— US20260242504A1 (published 2026)
